# In the supplement of paper PMC4604168 (melanoma cell lines):
# This is one part of the list. Repeats are few or missing, and single values can be far off.
# Tests used:
# Test in all cases: cell count relative to DMSO control; melanoma cells; higher = more viable cells
# Conditions in all cases: library dose: standard library concentration; 72 h
# [1] = system: G361
# [2] = system: IPC-298
# [3] = system: IST-MEL1
# [4] = system: LB2518-MEL
# [5] = system: LOXIMVI
# [6] = system: MEL-HO
# [7] = system: MZ2-MEL
# [8] = system: MeWo
# [9] = system: RPMI7951
# [10] = system: RVH-421
# 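Also: cells treated in 1,536-well plates, then fixed and DAPI-stained, with nuclei counted from automated high-throughput microscope images.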
SMILES,cell count [1] [%],cell count [2] [%],cell count [3] [%],cell count [4] [%],cell count [5] [%],cell count [6] [%],cell count [7] [%],cell count [8] [%],cell count [9] [%],cell count [10] [%]
"CC[C@]1(O)C[C@H]2CN(CCc3c([nH]c4ccccc34)[C@@](C(=O)OC)(c3cc4c(cc3OC)N(C=O)[C@H]3[C@@](O)(C(=O)OC)[C@H](OC(C)=O)[C@]5(CC)C=CCN6CC[C@]43[C@@H]65)C2)C1 [vincristine] + COc1cc(N2CCC(N3CCN(C)CC3)CC2)ccc1Nc1ncc(Cl)c(Nc2ccccc2S(=O)(=O)C(C)C)n1 [NVP-TAE684] (first compound 0.0005 µM, partner dose 0.4 µM)",81.7,107,105,104,100,97.3,113,62.9,63.2,92.7
"CC[C@]1(O)C[C@H]2CN(CCc3c([nH]c4ccccc34)[C@@](C(=O)OC)(c3cc4c(cc3OC)N(C=O)[C@H]3[C@@](O)(C(=O)OC)[C@H](OC(C)=O)[C@]5(CC)C=CCN6CC[C@]43[C@@H]65)C2)C1 [vincristine] + Cc1ccc(Nc2nccc(N(C)c3ccc4c(C)n(C)nc4c3)n2)cc1S(N)(=O)=O [Pazopanib] (first compound 0.0005 µM, partner dose 2 µM)",82,74.1,95.8,80.1,88.6,88.8,73.8,104,68.4,33.6
"Cc1cc(Nc2cc(N3CCN(C)CC3)nc(Sc3ccc(NC(=O)C4CC4)cc3)n2)n[nH]1 [Tozasertib] + CC(C)(C)c1cnc(CSc2cnc(NC(=O)C3CCNCC3)s2)o1 [SNS-032] (first compound 0.03 µM, partner dose 0.05 µM)",94.5,106,87.2,77.4,76,103,76.5,70.5,69.5,99.2
"Cc1cc(Nc2cc(N3CCN(C)CC3)nc(Sc3ccc(NC(=O)C4CC4)cc3)n2)n[nH]1 [Tozasertib] + COc1ccc(-c2ccc3c(N4CCOCC4)nc(N4C[C@@H](C)O[C@@H](C)C4)nc3n2)cc1CO [KU0063794] (first compound 0.03 µM, partner dose 0.1 µM)",76.9,75.8,74.9,74.4,76.8,78.4,73.9,58.7,82.6,79.2
"Cc1cc(Nc2cc(N3CCN(C)CC3)nc(Sc3ccc(NC(=O)C4CC4)cc3)n2)n[nH]1 [Tozasertib] + C[C@]1(O)C[C@@H](c2nc(-c3ccc4ccc(-c5ccccc5)nc4c3)c3c(N)nccn32)C1 [OSI906] (first compound 0.03 µM, partner dose 2 µM)",76.3,88.2,104,74.9,92.2,95.3,68.1,71.6,96.6,125
"Cc1cc(Nc2cc(N3CCN(C)CC3)nc(Sc3ccc(NC(=O)C4CC4)cc3)n2)n[nH]1 [Tozasertib] + CC1(C)NC(=O)N(c2ccc([N+](=O)[O-])c(C(F)(F)F)c2)C1=O [nilutamide] (first compound 0.03 µM, partner dose 5 µM)",103,116,111,81.9,112,101,74.8,88.7,105,102
"CC[C@]1(O)C[C@H]2CN(CCc3c([nH]c4ccccc34)[C@@](C(=O)OC)(c3cc4c(cc3OC)N(C=O)[C@H]3[C@@](O)(C(=O)OC)[C@H](OC(C)=O)[C@]5(CC)C=CCN6CC[C@]43[C@@H]65)C2)C1 [vincristine] + COc1cc2c(Oc3ccc4[nH]c(C)cc4c3F)ncnc2cc1OCCCN1CCCC1 [cediranib] (first compound 0.0005 µM, partner dose 2 µM)",79.4,122,99.7,82.7,74.5,111,107,62.4,66,60.1
"Cc1cc(Nc2cc(N3CCN(C)CC3)nc(Sc3ccc(NC(=O)C4CC4)cc3)n2)n[nH]1 [Tozasertib] + N#CC[C@H](C1CCCC1)n1cc(-c2ncnc3[nH]ccc23)cn1 [ruxolitinib] (first compound 0.03 µM, partner dose 5 µM)",60.8,81,107,,83.6,80.9,,79.6,82.8,74.9
"CC[C@]1(O)C[C@H]2CN(CCc3c([nH]c4ccccc34)[C@@](C(=O)OC)(c3cc4c(cc3OC)N(C=O)[C@H]3[C@@](O)(C(=O)OC)[C@H](OC(C)=O)[C@]5(CC)C=CCN6CC[C@]43[C@@H]65)C2)C1 [vincristine] + CCCCCCCCCCCC1=C(O)C(=O)C=C(O)C1=O [Embelin] (first compound 0.0005 µM, partner dose 6 µM)",36.5,49.9,51.8,53.3,78.9,57.2,35.4,23.2,29.2,36.7
"N#CC[C@H](C1CCCC1)n1cc(-c2ncnc3[nH]ccc23)cn1 [ruxolitinib] + CCN(CC)CCCCNc1ncc2cc(-c3cc(OC)cc(OC)c3)c(NC(=O)NC(C)(C)C)nc2n1 [PD173074] (first compound 5 µM, partner dose 0.5 µM)",90,92.8,125,,89.4,85.1,,85.5,86.1,105
"CC[C@]1(O)C[C@H]2CN(CCc3c([nH]c4ccccc34)[C@@](C(=O)OC)(c3cc4c(cc3OC)N(C=O)[C@H]3[C@@](O)(C(=O)OC)[C@H](OC(C)=O)[C@]5(CC)C=CCN6CC[C@]43[C@@H]65)C2)C1 [vincristine] + Nc1nc(F)nc2c1ncn2[C@@H]1O[C@H](CO)[C@@H](O)[C@@H]1O [fludarabine] (first compound 0.0005 µM, partner dose 1 µM)",89.2,76.5,77,99,84.6,86.3,96.1,93.5,48.4,86.9
"N#CC[C@H](C1CCCC1)n1cc(-c2ncnc3[nH]ccc23)cn1 [ruxolitinib] + CC1(C)NC(=O)N(c2ccc([N+](=O)[O-])c(C(F)(F)F)c2)C1=O [nilutamide] (first compound 5 µM, partner dose 5 µM)",80.2,92.3,79.1,,73.7,81.2,93.5,71.1,64.9,62.2
"N#CC[C@H](C1CCCC1)n1cc(-c2ncnc3[nH]ccc23)cn1 [ruxolitinib] + c1cc(-c2cnn3cc(-c4ccc(OCCN5CCCCC5)cc4)cnc23)ccn1 [Dorsomorphin] (first compound 5 µM, partner dose 2 µM)",54.8,81.5,87.2,,98.8,77.4,,65.5,67.2,89.9
"CC[C@]1(O)C[C@H]2CN(CCc3c([nH]c4ccccc34)[C@@](C(=O)OC)(c3cc4c(cc3OC)N(C=O)[C@H]3[C@@](O)(C(=O)OC)[C@H](OC(C)=O)[C@]5(CC)C=CCN6CC[C@]43[C@@H]65)C2)C1 [vincristine] + Cc1cc(Nc2cc(N3CCN(C)CC3)nc(/C=C/c3ccccc3)n2)n[nH]1 [ENMD2076] (first compound 0.0005 µM, partner dose 0.2 µM)",103,89.6,78,60.6,84,97.2,56.2,73,51.1,56.1
"N#CC[C@H](C1CCCC1)n1cc(-c2ncnc3[nH]ccc23)cn1 [ruxolitinib] + CN(c1ncccc1CNc1nc(Nc2ccc3c(c2)CC(=O)N3)ncc1C(F)(F)F)S(C)(=O)=O [PF562271] (first compound 5 µM, partner dose 0.4 µM)",74.3,80.6,76.7,98.7,61.1,72.7,67.5,90.7,63.5,88.1
"CC[C@]1(O)C[C@H]2CN(CCc3c([nH]c4ccccc34)[C@@](C(=O)OC)(c3cc4c(cc3OC)N(C=O)[C@H]3[C@@](O)(C(=O)OC)[C@H](OC(C)=O)[C@]5(CC)C=CCN6CC[C@]43[C@@H]65)C2)C1 [vincristine] + O=C(O)c1ccc2c(c1)nc(Nc1cccc(Cl)c1)c1ccncc12 [CX4945] (first compound 0.0005 µM, partner dose 2 µM)",60.8,70,67.5,86.6,45.2,52.2,45,87.7,48.6,39.1
"CC[C@]1(O)C[C@H]2CN(CCc3c([nH]c4ccccc34)[C@@](C(=O)OC)(c3cc4c(cc3OC)N(C=O)[C@H]3[C@@](O)(C(=O)OC)[C@H](OC(C)=O)[C@]5(CC)C=CCN6CC[C@]43[C@@H]65)C2)C1 [vincristine] + Nc1cccc2c1CN(C1CCC(=O)NC1=O)C2=O [lenalidomide] (first compound 0.0005 µM, partner dose 5 µM)",104,109,89.1,,72.9,91.1,,91.4,54.7,71.4
"N#CC[C@H](C1CCCC1)n1cc(-c2ncnc3[nH]ccc23)cn1 [ruxolitinib] + CNC(=O)c1cc(Oc2ccc(NC(=O)Nc3ccc(Cl)c(C(F)(F)F)c3)cc2)ccn1 [sorafenib] (first compound 5 µM, partner dose 2 µM)",77.3,98.6,106,117,118,96,154,89.5,133,119
"CC[C@]1(O)C[C@H]2CN(CCc3c([nH]c4ccccc34)[C@@](C(=O)OC)(c3cc4c(cc3OC)N(C=O)[C@H]3[C@@](O)(C(=O)OC)[C@H](OC(C)=O)[C@]5(CC)C=CCN6CC[C@]43[C@@H]65)C2)C1 [vincristine] + C=C(c1ccc(C(=O)O)cc1)c1cc2c(cc1C)C(C)(C)CCC2(C)C [Bexarotene] (first compound 0.0005 µM, partner dose 10 µM)",72.9,75.8,71.2,,97.6,79,,99.9,37.2,123
"N#CC[C@H](C1CCCC1)n1cc(-c2ncnc3[nH]ccc23)cn1 [ruxolitinib] + CS(=O)(=O)CCNCc1ccc(-c2ccc3ncnc(Nc4ccc(OCc5cccc(F)c5)c(Cl)c4)c3c2)o1 [lapatinib] (first compound 5 µM, partner dose 4 µM)",56.4,91.6,94.8,,69.5,69.9,57.2,70.3,37.5,80.9
